Data on 97 compounds can be found in PubChem BioAssay AID485344 (National Center for Advancing Translational Sciences (NCATS), 2010).

Screen size: about 340,000 compounds; about 6,900 (2%) were called active. No stated cut-off is given here; in the data, active means inhibition above about 30%; inactive means below that, where a call was filed. The entries are a selection whose mix differs from that of the whole data set. The source gives no active or inactive call for entries shown without one.

As usually defined, the inhibition is the drop in the measured response relative to a control, in per cent.

Sequence of UniProt P14416 (P14416 whole entry, looked up): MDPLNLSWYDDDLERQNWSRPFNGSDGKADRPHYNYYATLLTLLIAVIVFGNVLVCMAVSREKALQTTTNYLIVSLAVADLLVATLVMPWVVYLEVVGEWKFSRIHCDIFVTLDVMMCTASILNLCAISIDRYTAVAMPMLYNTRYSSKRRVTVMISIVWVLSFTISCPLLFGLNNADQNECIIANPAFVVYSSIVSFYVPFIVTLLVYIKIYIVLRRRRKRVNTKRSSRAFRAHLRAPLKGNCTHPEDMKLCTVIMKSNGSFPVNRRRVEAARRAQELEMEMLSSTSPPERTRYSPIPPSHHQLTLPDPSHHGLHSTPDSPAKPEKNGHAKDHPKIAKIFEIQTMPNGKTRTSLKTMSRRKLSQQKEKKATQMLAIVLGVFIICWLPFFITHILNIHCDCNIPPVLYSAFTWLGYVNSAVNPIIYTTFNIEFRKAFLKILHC

This test deals with D(2) dopamine receptor (Homo sapiens) (UniProt P14416). The test is described as follows: HTS Assay for Allosteric Antagonists of the Human D2 Dopamine Receptor: Primary Screen for Antagonists. Further: 0% is about no effect. Particulars: HEK293 TREx D2 cells, calcium flux, dopamine EC80; at 10 µM; stronger effect = higher value. The method, boiled down:
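Cells plated overnight at 30 C with tetracycline; no-wash calcium dye, 30–90 min RT; 10 s baseline; compound pinned; 180 s read; EC80 dopamine added; another 180 s read.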
In general terms: Calcium assays in cells follow changes in intracellular calcium, usually with a dye or a luminescent sensor.
For `CC(=O)c1cc(-c2ccc(F)cc2)n(CCC(=O)Nc2nc3ccc(C)cc3s2)c1C`, the inhibition was -11.1%.

Consider `COc1ccc(-c2nc3cc(NC(=O)c4ccc(C)cc4)ccc3o2)cc1Cl`, for which the inhibition turned out to be 3.25%.

`O=C(OCc1cc(=O)n2nc(C3CC3)sc2n1)c1ccc(NC(=O)c2ccccc2F)cc1`: the inhibition worked out at 1.27%.

Take `Cc1ccc(C(=O)N2CCC(C)CC2)cc1NC(=O)c1nsc2ccccc12`: the inhibition is -14%.

As for `CCOc1ccc(Br)cc1C1NC(=O)c2c(sc3c2CCN(C)C3)N1` (configuration not stated), the inhibition came to 20.5%.

For the compound `CCN(c1ccccc1)S(=O)(=O)c1ccc(NC(=O)c2nc(SC(C)C)ncc2Cl)cc1`, the inhibition came to 25.6%.

Consider `COc1cc(C(CC(=O)Nc2ncccc2C)N2Cc3ccccc3C2=O)cc(OC)c1OC` (configuration not stated), for which the inhibition is -19.7%.

In the case of `Cc1cccc(CNC(=O)CN2C(=O)CSc3c2c(C)nn3-c2ccccc2)c1`, the inhibition amounted to 5.9%.

As for `Nc1c(-c2nc(-c3ccc4c(c3)OCO4)cs2)c2ccccn2c1C(=O)c1ccc(Cl)cc1`, the inhibition amounted to 6.86%.

On to `CCOc1ccc(NC(=O)Cc2c[nH]c3ccccc23)cc1`, for which the inhibition turned out to be 4.46%.

`O=C(O)c1ccc(NC(=O)c2ccc(Br)c(S(=O)(=O)N3CCCC3)c2)cc1`: the inhibition worked out at 2.36%.

Turning to `Cc1ccc(SCc2nc(-c3ccc(C(=O)NCC(C)c4ccccc4)cc3)oc2C)cc1` (configuration not stated), the inhibition was -7.17%.

As for `Cc1cccc(CNC(=O)CN2C(=O)CCn3nc(-c4cn(C)c5ccccc45)cc32)c1`, the inhibition was determined as 2.24%.

On to `CCCC12CN3CC(C)(CN(C1)C3c1ccc(OCc3ccccc3)cc1)C2=O` (configuration not stated), for which the inhibition stood at 15.4%.

Regarding `COc1ccccc1NC(=O)c1sc2nc3n(c(=O)c2c1C)N=C(c1cccc(Br)c1)CS3`, the inhibition is -10.6%.

`COc1ccc2c(c1)CCc1c(C(=O)Nc3ccc(OC)cc3OC)noc1-2`: the inhibition is -20.6%.

On to `COc1ccc(OC)c(/C=C(\C#N)c2nc(-c3ccc(F)cc3)cs2)c1`, for which the inhibition is -24.6%.

On to `COC(=O)c1ccc2c(c1)N(Cc1ccccc1)C(=O)c1ccccc1S2(=O)=O`, for which the inhibition was 0.571%.

`COc1ccc(Cn2c(C(=O)O)c(CNC3CCCCC3)c3ccc(C)cc32)cc1`: the inhibition was found to be 5.17%.

Consider `COc1ccc(Cl)cc1NC(=O)CN1Cc2ccccc2C1=O`, for which the inhibition was -6.31%.

As to `Cc1nc(S(=O)(=O)N2CCN(c3ccccc3F)CC2)cn1C`, the inhibition was 19.4%.

With `CCCNC(=O)C(Cc1ccccc1)NS(=O)(=O)c1ccc2c(c1)c(=O)n(C)c(=O)n2C` (configuration not stated), the inhibition came to 3.47%.

Regarding `CCOc1ccc(C(=O)Nc2ccc3c(c2)OCCO3)cc1Br`, the inhibition was found to be 11.6%.

For `O=C(CN1CCN(Cc2ccccc2Cl)C1=O)NCCc1ccc(Cl)cc1`, the inhibition worked out at 18%.

As for `COc1cc(NS(=O)(=O)c2ccc(-c3cc(C)no3)cc2)cc(OC)c1`, the inhibition worked out at 0.718%.

As for `Cc1ccc(-c2csc3ncnc(Nc4ccc(C(=O)O)cc4)c23)cc1`, the inhibition turned out to be 19.2%.

Take `COc1ccccc1-c1nc2cc(NC(=O)c3ccccc3Cl)ccc2o1`: the inhibition was -3.77%.

With `CCc1ccc(S(=O)(=O)c2nnn3c2nc(NCc2ccccc2)c2cc(Cl)ccc23)cc1`, the inhibition is -13.1%.

`O=C(Nc1ccc(Cl)cc1)c1cc(S(=O)(=O)NC2CCCCCC2)ccc1F`: the inhibition was found to be 4.98%.

On to `COc1ccc(NC(=S)N2CCC(N(C)CC3CCCO3)CC2)cc1` (configuration not stated), for which the inhibition is active: 30.4%.

Turning to `CCN1C(=O)C(Cc2nc3ccccc3c(=O)n2C)c2cc(C)ccc21` (configuration not stated), the inhibition was -12.3%.

In the case of `COc1ccc(C(=O)Nc2nc3c(s2)Cc2cc(OC)ccc2-3)cc1`, the inhibition is -1.99%.

Turning to `COc1ccc(NC(=O)CSc2oc(-c3ccco3)nc2S(=O)(=O)c2ccccc2)c(OC)c1`, the inhibition is 0.335%.

Turning to `Cc1ccccc1NCc1nc2ccccc2n1CCOc1ccccc1`, the inhibition was -5.14%.

With `OC(CNCC1COc2ccccc2O1)COCc1cccs1` (configuration not stated), the inhibition was active: 30.8%.

Consider `CCN1C(=O)c2ccccc2Sc2ccc(NC(=O)c3ccc(C#N)cc3)cc21`, for which the inhibition worked out at 14.2%.

As for `CN(C(=O)Cn1nnc(-c2ccc(S(C)(=O)=O)cc2)n1)c1ccccc1`, the inhibition was -0.474%.

As to `COc1ccc(OC)c(NC(=O)N2CCN(Cc3nc4ccc(C)cc4o3)CC2)c1`, the inhibition is 16.5%.

As for `COc1ccc(CCNc2nc3cc(OC)c(OC)cc3c3nc(-c4cccnc4)nn23)cc1OC`, the inhibition turned out to be 7.54%.

With `COc1ccccc1-c1cc(C(=O)N/N=C/c2ccoc2)c2ccccc2n1`, the inhibition was active: 79.1%.

Regarding `COc1ccc(-c2cn3c(n2)sc2cc(C(=O)Nc4ccc(C)cc4C)ccc23)cc1`, the inhibition came out at 8.16%.

As for `O=S(=O)(c1ccccc1)c1nc(-c2ccccc2F)oc1N1CCOCC1`, the inhibition was found to be 11.5%.

On to `COc1cc2ccccc2cc1C(=O)Nc1ccc2oc(-c3cccc(C)c3)nc2c1`, for which the inhibition is -4.25%.

Consider `COc1ccccc1N1CCN(CCCn2c(=S)[nH]c3ccccc3c2=O)CC1`, for which the inhibition is active: 82.4%.

Take `CCOc1ccc(NC(=O)CCSc2nc(-c3ccc4c(c3)OCO4)cc(C(F)(F)F)n2)cc1`: the inhibition is 5.09%.

With `COc1ccc(-n2c3c(cc(-c4nc(-c5ccc(Cl)cc5)cs4)c2=O)C(=O)CC(C)(C)C3)cc1Cl`, the inhibition is -6.2%.

Consider `CCOC(=O)CSc1nc2c(sc3ccccc32)c(=O)n1Cc1ccc(OC)cc1`, for which the inhibition was -12.8%.

With `Nc1c(C(=O)c2ccccc2)sc(Nc2ccc(Cl)c(Cl)c2)c1C(=O)Nc1ccccc1`, the inhibition is 16%.

On to `Cc1ccc2c(c1)N(C(=O)N1CCC(C(=O)NCc3ccccc3F)CC1)CC(C)O2` (configuration not stated), for which the inhibition was -26.7%.

As for `N#Cc1ccccc1OCC(=O)N1CCN(c2ccccc2F)CC1`, the inhibition was -0.954%.

In the case of `Cc1ccc(Cl)cc1NS(=O)(=O)c1ccc(N2CCCCS2(=O)=O)cc1`, the inhibition was -6.49%.

On to `Cc1nc(-c2ccc(F)cc2)sc1CCNC(=O)c1ccc(C(C)(C)C)cc1`, for which the inhibition came to 0.279%.

`Cc1ccc(NC(=O)Cn2c(=O)n(Cc3ccccc3)c(=O)c3c2c2cc(C)ccc2n3C)cc1`: the inhibition was -2%.

`CC(=O)Nc1cccc(-c2cn3cccnc3n2)c1`: the inhibition was -9.31%.

In the case of `CCCN1CCC(N(CCc2ccccc2)Cc2ccccc2)CC1`, the inhibition is active: 39.5%.

As to `Cc1ccc(C(=O)NCC(c2cccnc2)N2CCc3ccccc3C2)cc1C` (configuration not stated), the inhibition was -2.71%.

Take `CCOc1ccc(C(=O)c2c(N)c(-c3nc(-c4ccc(OCC)cc4)cs3)c3ccccn23)cc1`: the inhibition came to 0.602%.

Take `CCOC(=O)N1CCN(C(=O)Cn2ncc3c4ccccc4n(Cc4ccc(F)cc4)c3c2=O)CC1`: the inhibition is -2.36%.

With `COc1ccccc1-c1nnc(C2CCN(S(=O)(=O)c3ccc(F)c(C)c3)CC2)o1`, the inhibition is 4.83%.

For the compound `O=C(COc1ccc(F)cc1)Nc1ccc(Cl)c(-c2nc3ccccc3[nH]2)c1`, the inhibition is -3.21%.

Consider `Cc1noc(C)c1S(=O)(=O)NCCc1csc2nc(-c3ccc(Cl)cc3)nn12`, for which the inhibition was -22.4%.

For `CCOC(=O)c1c(NC(=O)COc2ccc(Br)cc2)sc(C(C)=O)c1C`, the inhibition is -4.08%.

`CCCCc1nn2c(=O)cc(COC(=O)c3ccccc3NC(=O)c3cccc(C)c3)nc2s1`: the inhibition is -14.7%.

Take `Cc1cccc(NC(=O)c2c(C)oc3ncnc(N4CCCCC4)c23)c1C`: the inhibition was -5.22%.

Turning to `O=C(N/N=C/c1cn(-c2ccccc2)nc1-c1cc2ccccc2o1)c1c[nH]c2ccccc12`, the inhibition is active: 34.3%.

Turning to `CCOC(=O)NC(=O)/C(C#N)=N\Nc1cccc(Cl)c1`, the inhibition is active: 38.1%.

Take `Cc1nc2ncnn2c(C)c1CCC(=O)NCc1cccc(Cl)c1`: the inhibition is -7.97%.

With `Cc1nn(-c2ccccc2)c2sc(C(=O)Nc3cccc(Br)c3)cc12`, the inhibition is -7.77%.

Turning to `Cc1ccc(NC(=O)c2cc(S(=O)(=O)N3CCCCC3)c[nH]2)cc1F`, the inhibition is -8.01%.

`COc1ccc(C2C=C(c3ccccc3)Nc3nc(NC(=O)/C=C/c4ccc(Cl)cc4)nn32)cc1` (configuration not stated): the inhibition is -8.28%.

`O=C(c1ccc(S(=O)(=O)Nc2ccccc2F)cc1)N1CCCC1`: the inhibition is active: 50.6%.

Turning to `CC(CCc1ccccc1)N1CCN(Cc2ccccc2)CC1` (configuration not stated), the inhibition was active: 60.7%.

Consider `O=C(c1ccc(Br)o1)N1CCC(Cc2ccccc2)CC1`, for which the inhibition is active: 49.1%.

As for `Cc1cc(C)cc(NC(=O)C/C(N)=N/O)c1`, the inhibition was active: 71.5%.

Take `COc1ccccc1NC(=O)C1=C(C)Nc2nc(SCc3cccc(F)c3)nn2C1c1ccc(C(=O)O)cc1` (configuration not stated): the inhibition is -18.7%.

On to `COc1cccc(CNC(=O)c2cc3ccc4cccnc4c3[nH]2)c1`, for which the inhibition is 0.928%.

`COc1ccccc1N1CCN(C(=O)c2cc3c(=O)oc4ccccc4c3s2)CC1`: the inhibition was 4.72%.

On to `CC1CCN(CCOCCOc2ccc(Cl)cc2Br)CC1`, for which the inhibition is active: 68.6%.

As to `O=C(CSc1nc2c(cnn2-c2ccc(F)cc2)c(=O)[nH]1)Nc1ccccc1C(F)(F)F`, the inhibition amounted to 13.9%.

With `CCOc1ccc(/C=C2\CCC(C3CCCC3)C2=O)cc1` (configuration not stated), the inhibition is active: 37.4%.

With `CCOC(=O)C1CCN(C/C=C/c2ccccc2[N+](=O)[O-])CC1`, the inhibition was active: 48.4%.

For the compound `CCC(=O)N1CCc2cc(S(=O)(=O)CCC(=O)NCc3ccc(OC)cc3)ccc21`, the inhibition amounted to 4.21%.

As to `O=C(NCCNC1CCC(c2ccccc2)CC1)c1ccc(F)cc1` (configuration not stated), the inhibition was active: 84.6%.

As for `CCCCn1c(=O)nc2n(-c3ccc(F)cc3)c3ccccc3cc-2c1=O`, the inhibition was 7.27%.

In the case of `COC(=O)c1sccc1NC(=O)Nc1ccc(Cl)c(Cl)c1`, the inhibition is active: 43.9%.

For the compound `CC(Sc1nc2c([nH]c3ccccc32)c(=O)n1-c1ccccc1)c1ccccc1` (configuration not stated), the inhibition came to 7.39%.

For the compound `Cc1ccc(-c2cc(C(F)(F)F)n3ncc(-c4ccc(Cl)cc4)c3n2)cc1`, the inhibition is -9.94%.

Regarding `CCOC(=O)C1CCN(C(=O)c2ccc3c(c2)N=C(CC)c2cc(C)ccc2S3)CC1`, the inhibition is -5.35%.

For the compound `Cc1cccc(-c2nc(SCC(=O)N(C)c3ccccc3)c3c(=O)n(C)c(=O)n(C)c3n2)c1`, the inhibition is -4.92%.

With `O=C(c1ccco1)N1CCN(C(=O)c2cnn(-c3cccc(F)c3)c2C2CCNCC2)CC1`, the inhibition was determined as 5.4%.

Consider `CCCN1C(=O)C2(c3ccccc31)c1c(oc3ccccc3c1=O)C(=O)N2CCCOC(C)C` (configuration not stated), for which the inhibition stood at 11.3%.

Take `O=C(O)c1ccc(C2Nc3ccccc3-c3nnc(SCc4ccc(Cl)cc4)nc3O2)cc1` (configuration not stated): the inhibition was -7.28%.

For the compound `CCc1ccc2[nH]c(=O)c(C(c3nnnn3Cc3ccccc3)N3CCOCC3)cc2c1` (configuration not stated), the inhibition was active: 36.4%.

Regarding `Cn1c(=O)cc(SCC(=O)N2CCN(c3ccccc3)CC2)c2ccccc21`, the inhibition is -19.6%.

Turning to `COc1cccc(C(=O)Nc2ccc(C(=O)OCc3cc(=O)n4nc(C5CC5)sc4n3)cc2)c1`, the inhibition was 3.57%.

`COc1cc(OC)c(NC(=O)N2CC=C(c3c[nH]c4ccccc34)CC2)cc1Cl`: the inhibition was -2.02%.

On to `COc1ccccc1OCc1nc(-c2cccc(C)c2)no1`, for which the inhibition came to 8.43%.
